Laboratory results published in PMC9911399, “Two distinct binding modes provide the RNA-binding protein RbFox with extraordinary sequence specificity”.
Substitutions are numbered along the chain they refer to; changes in the protein carry UniProt numbers. This is one part of the list.

T1: RBFOX1 RRM (Homo sapiens, UniProt Q9NWB1 109-208)
T1 sequence: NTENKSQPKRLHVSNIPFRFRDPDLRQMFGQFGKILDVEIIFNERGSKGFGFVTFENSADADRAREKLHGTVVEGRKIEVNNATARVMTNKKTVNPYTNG

B1: AUGUGGU (DNA:RNA)
RNA: GGGAGACCGGAAUUCAGAUUGUCCAUGUGGUUUAAAUCCCGUCGUAGCCACCA
DNA 1: CAATCTGAATTCCGGTCTCCC
DNA 2: TGGTGGCTACGACGGGATT
B2: UCAUCUA (DNA:RNA)
RNA: B1 RNA with A25U, U26C, G27A, G29C, G30U, U31A
DNA 1: CAATCTGAATTCCGGTCTCCC
DNA 2: TGGTGGCTACGACGGGATT
B3: AUUCAGU (DNA:RNA)
RNA: B1 RNA with G27U, U28C, G29A
DNA 1: CAATCTGAATTCCGGTCTCCC
DNA 2: TGGTGGCTACGACGGGATT
B4: ACUGAAC (DNA:RNA)
RNA: B1 RNA with U26C, G27U, U28G, G29A, G30A, U31C
DNA 1: CAATCTGAATTCCGGTCTCCC
DNA 2: TGGTGGCTACGACGGGATT
B5: UUAGUAC (DNA:RNA)
RNA: B1 RNA with A25U, G27A, U28G, G29U, G30A, U31C
DNA 1: CAATCTGAATTCCGGTCTCCC
DNA 2: TGGTGGCTACGACGGGATT
B6: GUAUGAU (DNA:RNA)
RNA: B1 RNA with A25G, G27A, G30A
DNA 1: CAATCTGAATTCCGGTCTCCC
DNA 2: TGGTGGCTACGACGGGATT
B7: CUAGAUU (DNA:RNA)
RNA: B1 RNA with A25C, G27A, U28G, G29A, G30U
DNA 1: CAATCTGAATTCCGGTCTCCC
DNA 2: TGGTGGCTACGACGGGATT
B8: CCCCUCG (DNA:RNA)
RNA: GGGAGACCGGAAUUCAGAUUGUCCCCCCUCGUUAAAUCCCGUCGUAGCCACCA
DNA 1: CAATCTGAATTCCGGTCTCCC
DNA 2: TGGTGGCTACGACGGGATT
B9: CGUAGAU (DNA:RNA)
RNA: B1 RNA with A25C, U26G, G27U, U28A, G30A
DNA 1: CAATCTGAATTCCGGTCTCCC
DNA 2: TGGTGGCTACGACGGGATT

What follows are binders tested against T1, RBFOX1 RRM (assay: EMSA; HiTS-Eq, 1 nM pool, 10 min; buffer printed only for the single-RNA assays: 10 mM Tris pH 7.5, 150 mM NaCl, 3.4 mM EDTA, 0.001% NP-40, 30 C). Conditions: tags: His6 N-terminal (pET28a); label: 5' 32P.
Outline: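 These values rest on relative association constants, computed from read-count changes of each RNA species versus the control reaction and normalised to the cognate motif. Reads came from free RNA recovered by 8% native PAGE after purified RbFox RRM (wild type or mutant) at increasing concentrations was equilibrated for 10 min in 50 µL with 1 nM of a 5′-radiolabelled pool with 7 randomized nucleotides and DNA-annealed flanks.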

How did the binding signal turn out when B1 was run?
Its binding signal is 0.0169 KA relative to UGCAUGU.

With B2 as the binder, how does the binding signal read?
Its binding signal is 0.00411 KA relative to UGCAUGU.

For B3, which binding signal is on record?
The binding signal was 0.00563 KA relative to UGCAUGU.

With B4 as the binder, how does the binding signal read?
The binding signal was 0.0093 KA relative to UGCAUGU.

For B5, which binding signal is on record?
The binding signal was 0.00923 KA relative to UGCAUGU.

How did the binding signal turn out when B6 was run?
The binding signal was 0.0134 KA relative to UGCAUGU.

For B7, which binding signal is on record?
The binding signal was 0.0063 KA relative to UGCAUGU.

Which binding signal does the source give for B8 here?
The binding signal was 0.0119 KA relative to UGCAUGU.

How did the binding signal turn out when B9 was run?
Its binding signal is 0.00673 KA relative to UGCAUGU.
